# Measurements published in the BET-seq Pho4 binding data (Le et al. 2018).
# Some of the results follow. Values were computed here from the reads of four pooled replicates and scatter widely.
# Biological target: T1, Pho4 (S. cerevisiae) (UniProt P07270)
# T1 sequence: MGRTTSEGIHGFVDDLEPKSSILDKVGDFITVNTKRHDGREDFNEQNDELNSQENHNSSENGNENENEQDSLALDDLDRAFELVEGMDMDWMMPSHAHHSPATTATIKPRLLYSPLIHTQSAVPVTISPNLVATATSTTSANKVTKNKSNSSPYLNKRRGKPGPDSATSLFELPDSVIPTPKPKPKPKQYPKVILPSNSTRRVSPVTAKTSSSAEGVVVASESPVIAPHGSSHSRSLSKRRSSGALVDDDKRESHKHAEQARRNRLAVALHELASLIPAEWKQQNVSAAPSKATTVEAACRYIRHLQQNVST
# Test: relative binding free energy (BET-seq); higher = weaker binding
# Settings: reference: library average
row,Sequence,relative binding free energy [kcal/mol]
1,GTGTGCACGTGAAGAA,0.15
2,GCGGTCACGTGAGGAT,0.33
3,CTTTGCACGTGGGGGT,-0.15
4,GATTGCACGTGGGTCT,-0.13
5,TGTTGCACGTGTAAAG,0.07
6,TGGGGCACGTGGCCGG,-0.26
7,TTTTTCACGTGGCTGA,0.16
8,TGGTGCACGTGCTAGG,-0.06
9,GAATGCACGTGAGAGT,0.22
10,TCGTGCACGTGGTCGG,0
11,TTTGTCACGTGTAAAG,0.12
12,TTGGACACGTGATCTT,0.14
13,TATTTCACGTGTCTGA,0.26
14,GTCTACACGTGTGGGT,0.19
15,GTGCGCACGTGGGCCG,-0.14
16,TAGAGCACGTGGGGCA,-0.15
17,TACTTCACGTGGGTAT,0.13
18,TTAGTCACGTGTGTGG,0.2
19,GGGTTCACGTGTAAGG,0.35
20,ACCAGCACGTGGGGGG,-0.31
21,ATTCACACGTGGTGTA,-0.03
22,TGAATCACGTGTTTTA,0.06
23,AGTTACACGTGGGCAG,-0.01
24,GAAAGCACGTGAAAGG,0.39
25,GAGTTCACGTGGTCGA,0.4
26,AGGCACACGTGTCGGG,0.07

row,Sequence,relative binding free energy [kcal/mol]
1,GAGGTCACGTGTACTG,0.16
2,TTTAGCACGTGTGGAG,-0.02
3,GTGTGCACGTGTTCGC,0.02
4,AGGGGCACGTGTTGAC,-0.21
5,GGTTACACGTGTTCTT,0.1
6,CTGGGCACGTGTCGTT,-0.04
7,TTGGTCACGTGGTTGC,0.1
8,TGATTCACGTGCGGGG,0.22
9,ATTGCCACGTGAGTGG,0.13
10,ATGTTCACGTGGCTAG,0.17
11,TAAGGCACGTGTTTCG,-0.07
12,TAGGCCACGTGTTTGG,-0.15
13,AGTTGCACGTGTATGC,-0.06
14,AATATCACGTGTTGCT,0.1
15,GTAGGCACGTGAAAGT,0.17
16,TAGGACACGTGTGAGT,0.15
17,TCATACACGTGGGTTA,-0.02
18,AGAGGCACGTGTGTAT,-0.05
19,GCTGTCACGTGTGGTA,0.16
20,TGGGACACGTGTTATC,0.11
21,TTTGACACGTGGAGAG,0.07
22,GGGTTCACGTGGATAG,0.25
23,TTGTGCACGTGTTTTA,0.07
24,TGTTACACGTGATTCT,0.14
25,TTGCGCACGTGTTATT,-0.02
26,TGATGCACGTGCTTTT,-0.14

row,Sequence,relative binding free energy [kcal/mol]
1,TGTAGCACGTGGCATT,-0.28
2,GTGGGCACGTGTGAAG,-0.04
3,AGGGGCACGTGGCTGA,-0.21
4,TTTGACACGTGATCTG,0.11
5,TTTGGCACGTGGTCGT,-0.13
6,TAGGACACGTGTGCTA,0.13
7,TGTTTCACGTGGTCAG,0.15
8,ATGGTCACGTGTACTT,0.11
9,TGGGACACGTGTGACT,0.18
10,GTCGGCACGTGAGGTA,0.13
11,TATTCCACGTGTGATT,0.16
12,CGGAGCACGTGGAGGA,-0.03
13,TGGAGCACGTGGCTGG,-0.26
14,TGCTTCACGTGTAAAG,0.28
15,TCGTACACGTGGGTGT,-0.06
16,TCGAACACGTGAGTGT,0.26
17,TTTGGCACGTGGGTAT,-0.2
18,CGTGTCACGTGGTGCT,0.04
19,ACTGGCACGTGCGTGT,-0.16
20,CTTGACACGTGGATGT,0.03
21,CGTGGCACGTGTCAGG,-0.08
22,TTTAGCACGTGTGTAA,-0.1
23,CTGGGCACGTGGGCTA,-0.21
24,GTCAGCACGTGAGTTT,0.29
25,GGTGGCACGTGGTAAA,-0.1
26,GGAAGCACGTGTAGAG,-0.11

row,Sequence,relative binding free energy [kcal/mol]
1,GGTTGCACGTGGTAGT,-0.01
2,ATGGTCACGTGTTGGG,0.12
3,TTCAACACGTGGGTAG,-0.18
4,GCTAACACGTGTTGGT,0.08
5,TCGGCCACGTGTGAGG,-0.02
6,ATTGTCACGTGCGTTA,-0.08
7,AGTCTCACGTGTTCTG,0.28
8,ATGGTCACGTGAATGA,0.21
9,GTTATCACGTGGCATG,0.07
10,AGATTCACGTGATGAG,0.29
11,TTAGACACGTGGTAGT,0
12,GATGTCACGTGTTGCT,0.08
13,TGTTACACGTGAGTCA,0.19
14,GTTAGCACGTGTTTAG,0.04
15,TAACGCACGTGTTAGT,-0.1
16,TGGTACACGTGTGTGA,0.04
17,TTAAGCACGTGTCGGA,-0.03
18,TGGAACACGTGAATTG,0.22
19,TGACGCACGTGTTAAG,-0.02
20,TGTGGCACGTGAGGTA,0.1
21,CAGTGCACGTGAGAGG,0.24
22,TCGGGCACGTGTGGGT,-0.08
23,TTGTGCACGTGAGGTT,0.2
24,TTGGACACGTGTCATT,0.01
25,CGCTACACGTGAGGGG,0.27
26,AGTAACACGTGGATTT,0.05

row,Sequence,relative binding free energy [kcal/mol]
1,CGCGGCACGTGCTGGT,-0.23
2,TGTATCACGTGGCACG,0.04
3,TTTCTCACGTGGGTGT,0.19
4,ATAGGCACGTGTATTG,-0.05
5,TGTGGCACGTGTGCAC,-0.22
6,TATGCCACGTGGGTTA,-0.25
7,TTGGTCACGTGCCGTT,-0.07
8,CGGGGCACGTGGTTAA,-0.2
9,TGGGCCACGTGGAGCT,-0.06
10,AGGAGCACGTGTAGGA,-0.19
11,TCTGGCACGTGTGCTG,-0.05
12,GTAGGCACGTGGGTAT,-0.19
13,TATCTCACGTGTGGTC,0.21
14,TTAGACACGTGGGGCG,-0.07
15,ACGTTCACGTGTGGGT,0.21
16,AGGTCCACGTGGGCGG,-0.26
17,ATTATCACGTGCGGTT,0.1
18,ATATGCACGTGTTTTG,0
19,TGGATCACGTGGTAAA,0.24
20,ATATGCACGTGGTTGG,-0.07
21,AGTTGCACGTGAGCGG,0.23
22,CGGTGCACGTGTGTAC,0.02
23,TGATTCACGTGGTAAA,0.33
24,GTGGACACGTGCGCGT,-0.08
25,TTCGTCACGTGATTGA,0.08
26,CTGGGCACGTGTACGG,-0.03

row,Sequence,relative binding free energy [kcal/mol]
1,GATGGCACGTGGGTCG,-0.23
2,TTTGGCACGTGTGGTC,0.05
3,AAGGTCACGTGTTTAA,0.13
4,CTGATCACGTGGTCGG,0.17
5,AGGATCACGTGGATAA,0.23
6,ATGAGCACGTGTTTAA,-0.14
7,GTTCTCACGTGTGGAG,0.34
8,GTGGGCACGTGTGGTA,-0.01
9,TTGCTCACGTGTTTTA,0.2
10,ATTTTCACGTGAACTG,0.34
11,TAGTGCACGTGTATGT,-0.05
12,TGTTTCACGTGTTTTG,0.27
13,TTTTGCACGTGGTTGG,0.04
14,ATACGCACGTGAAGGT,0.06
15,CCTTACACGTGGGGGG,0.02
16,TTTGTCACGTGCTTAG,0.1
17,CGCCTCACGTGTGGGG,0.16
18,TCTCTCACGTGGGTGT,0.23
19,CATTGCACGTGAATTT,0.32
20,CGGTTCACGTGCTGTT,0.33
21,AAAGGCACGTGAGGGT,0.1
22,ATTGGCACGTGATAGG,0.06
23,AGGGGCACGTGACAGT,-0.01
24,GCTATCACGTGGTGAT,0.13
25,TGCTTCACGTGAAAGG,0.42
26,CGAGGCACGTGCGATG,-0.05

row,Sequence,relative binding free energy [kcal/mol]
1,CAAGGCACGTGGGTCG,-0.22
2,TGTGACACGTGATAGG,0.05
3,TTGGCCACGTGGGGGG,-0.15
4,GAAGGCACGTGCTAGG,-0.17
5,GGAGGCACGTGTTAGC,0.09
6,GTGAGCACGTGGTGAA,-0.18
7,GGATTCACGTGGTAGT,0.27
8,GTCGTCACGTGTTATA,0.16
9,TGCGGCACGTGATTTG,-0.05
10,TATATCACGTGAGAGT,0.37
11,TATAACACGTGTGAAT,0.1
12,TAAAGCACGTGCCGGG,-0.02
13,ATGGGCACGTGAGTCT,0.1
14,ATGTACACGTGTCGTT,0.12
15,TGGCTCACGTGTTTAT,0.4
16,GCGGTCACGTGAAGTG,0.35
17,GGCCACACGTGGGGGA,0.01
18,CGGGTCACGTGGTTTG,0.09
19,TACGTCACGTGGTTGT,0.03
20,CGGACCACGTGTTGGT,0.17
21,AAAGTCACGTGGAGAT,0.19
22,TGCGTCACGTGTGCGG,-0.06
23,GGTTGCACGTGCATGA,0.01
24,ATATACACGTGGGATT,0.04
25,GCGTCCACGTGTTGGG,0.05
26,GTTCGCACGTGGTAGG,-0.12

row,Sequence,relative binding free energy [kcal/mol]
1,AGTACCACGTGGGGAT,-0.15
2,GGGGACACGTGGATTG,0.11
3,ACGAGCACGTGAGGGT,0.18
4,AATGTCACGTGCGTAG,0.09
5,CTCTGCACGTGGGTTG,-0.12
6,AGGGGCACGTGGTGCG,-0.21
7,TATGTCACGTGGTATC,0.01
8,ATACGCACGTGTGTGT,-0.06
9,TTGTACACGTGGGATA,-0.03
10,AGGGTCACGTGGATTA,0.07
11,ATTTTCACGTGCAGGG,0.18
12,TTGCACACGTGGTGAG,0.02
13,TTTCTCACGTGGCGTG,0.12
14,AAATTCACGTGGTGGT,0.18
15,ATTCGCACGTGGATTG,-0.16
16,AGGATCACGTGAGAGG,0.45
17,ATTTTCACGTGTGGCT,0.31
18,TTGTACACGTGCGTGG,-0.03
19,GTGTGCACGTGGTCGT,-0.06
20,TGAGTCACGTGCTGCG,0.1
21,TTAGGCACGTGAGTTA,0.16
22,AGCTTCACGTGGGTTG,0.17
23,GTAAACACGTGGGGCA,-0.09
24,GTCTGCACGTGGGGGT,-0.15
25,GATATCACGTGAATGT,0.41
26,ATCGTCACGTGTGAGT,0.08

row,Sequence,relative binding free energy [kcal/mol]
1,TTAGGCACGTGCGTGT,-0.17
2,TGGCTCACGTGGGGGT,0.05
3,ATGTTCACGTGGGGTC,0.09
4,TGTTCCACGTGTTTTT,0.07
5,TTAGTCACGTGGATTG,0.11
6,AGTTACACGTGGTGTG,-0.02
7,GGTATCACGTGAGAAT,0.29
8,CGCGGCACGTGGAGTG,-0.1
9,AGCGTCACGTGGCGGC,0.03
10,TGCGTCACGTGGCTGG,0
11,AGAGACACGTGAGGAG,0.44
12,TGCAGCACGTGGATGG,-0.12
13,ATATTCACGTGGGCGG,0.18
14,TTTACCACGTGTTGAG,0.15
15,GAAATCACGTGGTTTG,0.15
16,CTAGCCACGTGGGTTG,-0.11
17,CCTGGCACGTGGGCGG,-0.21
18,TTTATCACGTGTGACA,0.26
19,TAGATCACGTGAGGCA,0.57
20,GTTGTCACGTGAATAA,0.42
21,TTCATCACGTGGAGTA,0.15
22,TGTGCCACGTGGGGTT,-0.18
